Measured values as given in ChEMBL document CHEMBL1201862, “PubChem BioAssay data set” (2004).
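Interpolation was linear, between the two tested concentrations surrounding the appropriate level; five concentrations were tested over 48 hours in 96-well plates. Abbreviation: GI50, concentration required for 50% inhibition of growth.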 The source made the active and inactive calls. Rule as the data show it: active = GI50 up to about 1.1 µM and inactive = higher.

The compounds below were run on NCI-H322M (assay: NCI-60 cell line screen, 48 h).
`COc1ccc(-c2cs/c(=N\c3ccccc3)n2CC(O)c2ccc([N+](=O)[O-])cc2)cc1` (stereo unspecified) was tested, and the GI50 was inactive: > 100 µM. In the case of `COc1ccc(/C=C/c2nsc(/C=C/c3ccc(OC)cc3)n2)cc1`, the GI50 is reported as inactive: > 100 µM. `COc1ccc(C2Oc3ccc(Cl)cc3C=C2[N+](=O)[O-])cc1` (stereo unspecified) was tested, and the GI50 was inactive: > 100 µM. With `CC(=N/NC(=S)N1CCCCC1)/C(=N\NC(=S)N1CCCCC1)c1ccccc1` the GI50 was inactive: 1.88 µM. For `CSc1nc(-c2ccc(C)cc2)c(C#N)c(=O)[nH]1`, the GI50 was inactive: > 100 µM. For `Nc1nc(Cl)cc(OCC2(CO)CCCCC2)n1`, the GI50 was inactive: > 100 µM. With `Cc1ccc([N+](=O)[O-])c2c(NCCC[N+](C)(C)[O-])c3ccccc3nc12` the GI50 was inactive: 1.56 µM. `O=c1cc(CNC2CC3CCC2C3)[nH]c(=O)[nH]1` (stereo unspecified) was tested, and the GI50 was inactive: > 100 µM. With `C=CCNC(=S)NNC(=O)c1c(C)nc2sccn12` the GI50 was inactive: > 100 µM. With `CN(C)CC1CC/C(=C\c2ccc(Cl)c(Cl)c2)C1=O` (stereo unspecified) the GI50 was inactive: > 61.1 µM. For `O=C(OCC1OC(n2nc(Cn3nnc(-c4cccnc4)n3)n(-c3cccc4ccccc34)c2=S)C(OC(=O)c2ccccc2)C1OC(=O)c1ccccc1)c1ccccc1` (stereo unspecified), the GI50 was inactive: > 100 µM. With `CC1(O)C(C)(O)C(C)(O)C1(C)O` (stereo unspecified) the GI50 was inactive: > 100 µM. With `Cn1cnc([N+](=O)[O-])c1Sc1nncc2[nH]cnc12` the GI50 was inactive: > 100 µM. For `Cn1c(COC(=O)NC2CCCCC2)c(COC(=O)NC2CCCCC2)c2ccc3cc(C=O)ccc3c21`, the GI50 was inactive: > 100 µM. With `Cc1ccc(S(=O)(=O)N2CCCSCCN(S(=O)(=O)c3ccc(C)cc3)CCCSCC2)cc1` the GI50 was inactive: > 100 µM. For `O=C(O)C(CS)Nc1c2ccccc2[n+]([O-])c2ccccc12` (stereo unspecified), the GI50 was inactive: > 100 µM. In the case of `Cc1cc(Nc2ccc(S(=O)(=O)O)cc2)c2ccccc2n1`, the GI50 is reported as inactive: > 100 µM. With `Cc1cc2c(cc1Cl)SC(NN(C)C)=NS2(=O)=O` the GI50 was inactive: > 10 µM. `CCNc1nnc(CSc2nc(-c3ccccc3)c(-c3ccccc3)[nH]2)s1` was tested, and the GI50 was inactive: 18.5 µM. `Cc1cc(=O)oc2c(CNC(CC(C)C)C(=O)O)c(O)ccc12` (stereo unspecified) was tested, and the GI50 was inactive: > 100 µM. In the case of `O=C(O)CCNc1ncc2c(n1)-c1ccccc1OC2`, the GI50 is reported as inactive: > 100 µM. `CCOc1ccc(-n2nnc3c(N)nc(N)nc32)cc1` was tested, and the GI50 was inactive: > 100 µM. In the case of `C/C=C(\NC(=O)C(CCCCN)NC(=O)C(C)NC(=O)C1CSC(C)C(NC(=O)C2CSCC(NC(=O)C(C)NC(=O)C(N)C(C)CC)C(=O)NC(CCCCN)C(=O)NC(Cc3ccccc3)C(=O)NC(CC(C)C)C(=O)N2)C(=O)N2CCCC2C(=O)NCC(=O)N1)C(=O)NCC(=O)NC1CSCC2NC(=O)C(Cc3ccc(O)cc3)NC(=O)C(CSC=CNC2=O)NC(=O)C(CC(N)=O)NC(=O)C(Cc2ccccc2)NC1=O` (stereo unspecified), the GI50 is reported as inactive: > 100 µM. In the case of `CC(C)c1cccc(C(C)C)c1OS(=O)(=O)NC(=O)OC(C(F)(F)F)C(F)(F)F`, the GI50 is reported as inactive: 46.7 µM. For `Clc1cccc(Cl)c1C1SCC2=Nc3ccccc3CN21` (stereo unspecified), the GI50 was inactive: 19.4 µM. In the case of `CC(C)=CCC/C(C)=C/CC/C(C)=C/C1CCC(=O)C1(C)C` (stereo unspecified), the GI50 is reported as inactive: 34.1 µM. With `C/C(=N\Nc1nc2ccccc2s1)c1ccncn1` the GI50 was active: 1.09 µM. For `O=[N+]([O-])c1ccc(C2=NOC(c3ccccc3)N2C23CC4CC(CC(C4)C2)C3)cc1` (stereo unspecified), the GI50 was inactive: 43.3 µM. For `COC(=O)c1c(-c2ccc(Cl)cc2)cc2c3ccccc3n(C)c2c1C(=O)OC`, the GI50 was inactive: > 100 µM. In the case of `Cc1c(/C=N/N=C/c2[nH]c(C(=O)OC(C)(C)C)c(C)c2C)[nH]c(C(=O)OC(C)(C)C)c1C`, the GI50 is reported as inactive: > 100 µM. For `O=C(C(Cl)=C(N1CCCCC1)N1CCCCC1)C(Cl)Cl`, the GI50 was inactive: > 100 µM. In the case of `CCN(C(=O)/C=C/c1ccco1)c1ccccc1`, the GI50 is reported as inactive: > 100 µM. For `CCCC(C)n1c(C)nc2c1C(=O)c1ccccc1C2=O` (stereo unspecified), the GI50 was inactive: 48.2 µM. `O=C(CC(=O)c1cccc2ccccc12)C(=O)NC1C2CC3CC(C2)CC1C3` (stereo unspecified) was tested, and the GI50 was inactive: > 100 µM. `COc1ccc(C2SCC(=O)N2NC(=O)c2ccncc2)cc1F` (stereo unspecified) was tested, and the GI50 was inactive: > 100 µM. With `N=C(N)NCCN1CC2CCC(CC2)C1` the GI50 was inactive: > 100 µM. `COC(=O)[C@@]12C(=O)CCC(=O)C1C1C(=CC2C)O[C@@H]2OC3(CCCCC3)O[C@H]12` (stereo partly specified) was tested, and the GI50 was inactive: > 100 µM. `CC1(C)C[C@@H]2C1CCC1(C)CC2(O)CC[C@H]1O` (stereo partly specified) was tested, and the GI50 was inactive: > 100 µM. `C[C@@H](NC1CCCC[C@@H]1O)c1ccccc1` (stereo partly specified) was tested, and the GI50 was inactive: > 100 µM. `COC(=O)C1C(=O)NC2(C)CC1c1ccccc1O2` (stereo unspecified) was tested, and the GI50 was inactive: > 100 µM. For `CCCCCC[C@@H]1CCC2C(CO)[C@@H](O)CC[C@@H]2C1` (stereo partly specified), the GI50 was inactive: 16.5 µM. For `Cc1c2cccc-2c(N(C)C)cc2c1[nH]c1ccccc12`, the GI50 was inactive: 8.69 µM. In the case of `CC12OC3CC(O1)C1(C=O)C4CCC5(C)C(c6ccc(=O)oc6)CCC5(O)C4CCC1(C3)O2` (stereo unspecified), the GI50 is reported as active: 0.34 µM. `CC(O)=NC(Cc1ccc2ccccc2c1)C(O)=NC(Cc1ccc(Cl)cc1)C(O)=NC(Cc1c[nH]c2ccccc12)C(O)=NC(CO)C(O)=NC(Cc1ccc(O)cc1)C(O)=NC(CCCN=C(N)N)C(O)=NC(CC(C)C)C(O)=NC(CCCN=C(N)N)C(=O)N1CCCC1C(O)=NC(C)C(=N)O` (stereo unspecified) was tested, and the GI50 was inactive: 20.5 µM. `C[C@]12CC[C@H]3[C@@H](CCC4=CC(=O)CC[C@@]43C)[C@@H]1CC[C@@H]2C(=O)COS(=O)(=O)c1ccc(Br)cc1` was tested, and the GI50 was inactive: 18.5 µM. For `c1cc2c(cc1NC1=NCCO1)CCC2`, the GI50 was inactive: > 10 µM.
